The source of these data is PubChem BioAssay AID463173 (ICCB-Longwood Screening Facility, Harvard Medical School, 2010).

Among all 52,000 compounds or so, about 1,700 (3.3%) were called active. Cut-off read from the data, not from the text of the source: active = survival mostly below about 52% (no sharp cut-off); inactive = mostly above about 56%. Some of the results follow.

The test has as its system Wild type. Description: S. aureus survival, RN4220 and DeltatarO strains – OD600, teichoic acid synthesis inhibitors, primary screen (AID 463173). As to conditions: S. aureus RN4220 wild type/DeltatarO growth, OD600, 18 h, hits give low values, screened at 18.75 µg/mL (by protocol).
Regarding `CCc1ccc(S(=O)(=O)c2nnn3c2nc(N2CCC(C)CC2)c2cc(Cl)ccc23)cc1`, the survival is inactive: 128%.
Next, `COc1ccc(-c2cc(C(=O)NCc3cc(OC)c(OC)c(OC)c3)[nH]n2)cc1`: inactive: 64%; `O=C(Cn1nc(-c2ccc3c(c2)OCCO3)ccc1=O)Nc1ccc(N2CCOCC2)cc1`: inactive: 102%.
With `O=C(Nc1ccccc1)C(Cc1ccccc1)N1Cc2ccccc2C1=O` (configuration not stated), the survival is inactive: 90%.
Next, `O=C(CSc1ncc(S(=O)(=O)c2ccc(Br)cc2)c(=O)[nH]1)NCc1ccc(Cl)cc1`: inactive: 86%; `Cc1ccc(C)c(NC(=O)CCN2C(=O)c3ccccc3Sc3ncccc32)c1`: inactive: 90%; `COc1ccc(C2=NS(=O)(=O)N(C)C(C(=O)Nc3cc(C)ccc3O)=C2)cc1OC`: inactive: 69%.
As for `O=C1CS/C(=N\N2CCOCC2)N1Cc1ccccc1`, the figure is inactive: 120%; as for `COc1cccc(N2CCN(S(=O)(=O)c3cc(Br)cc4c3N(C(=O)C3CC3)CC4)CC2)c1`, inactive: 80%.
As for `Cc1nc(N2C(=O)c3oc4ccccc4c(=O)c3C2c2ccccc2F)sc1C` (configuration not stated), the survival is inactive: 73%.
Next, `CN1CCN(C(CNC(=O)C(=O)Nc2ccccc2)c2ccc3c(c2)OCO3)CC1` (configuration not stated): inactive: 60%; `Cc1cccc(N2C(=O)CSC23C(=O)N(Cc2cccc(F)c2)c2ccccc23)c1` (configuration not stated): inactive: 80%; `Cc1cccc(-c2noc(CN(C(=O)COc3ccc(C(C)C)cc3)C(C)C)n2)c1`: active: 3%.
As for `CCOC(=O)c1c(C)n(-c2ccccc2)c2ccc(OC(=O)c3ccccc3)cc12`, the figure is active: 0%; as for `CCNc1nc(NC(C)CC)nc(ON=C(C)C)n1` (configuration not stated), inactive: 120%.
Next, `Cc1ccc(C)c(CSc2nc3ncccc3[nH]2)c1`: inactive: 75%; `O=C(O)CSCCn1cccn1`: inactive: 104%.
As for `Oc1c(C(c2ccc(Cl)cc2Cl)N2CCOCC2)sc2nc(-c3ccco3)nn12` (configuration not stated), the survival is inactive: 77%.
Regarding `CCc1ccc(NC(=O)Cn2c(=O)c(-c3ccccc3NC(C)=O)nc3ccccc32)cc1`, the survival is inactive: 85%.
Next, `COc1cccc(CNC(=O)CSc2nc(=O)[nH]c3c2CCCC3)c1`: inactive: 77%; `CCn1ccc2cc(S(=O)(=O)N3CCCN(C(=O)Nc4ccccc4C(F)(F)F)CC3)ccc21`: inactive: 131%; `CCOC(=O)c1cc2c(ccn2-c2ccc(F)cc2)n1CC(=O)c1ccc2c(c1)OCCO2`: inactive: 87%.
As for `CCOc1ccc(S(=O)(=O)N(CC(=O)NCCSCc2ccc(C)cc2)c2ccccc2)cc1`, the figure is inactive: 91%.
As for `Cc1ccc2c(=O)cc(C(=O)Nc3nnc(CC(C)C)s3)oc2c1C`, the figure is inactive: 90%; as for `CC1CCN(S(=O)(=O)c2ccc(N3CCCCS3(=O)=O)cc2)CC1`, inactive: 70%; as for `COc1ccc(CCNC(=O)Cn2cc(S(=O)(=O)Cc3ccccc3F)c3ccccc32)cc1OC`, inactive: 77%.
As for `Cc1cccc(Cn2c(=O)n(CCC(=O)NCc3ccc4c(c3)OCO4)c(=O)c3sccc32)c1`, the survival was inactive: 93%.
Next, `O=C(CC1N=C2c3ccccc3N=C(SCC(=O)Nc3cccc(Cl)c3)N2C1=O)NCc1cccs1` (configuration not stated): inactive: 82%.
As for `Cc1ccc(C)n1-c1nnc(N2CCC(C(=O)Nc3ccccc3Br)CC2)s1`, the figure is inactive: 88%; as for `Cc1ccsc1CNCCCO`, inactive: 107%; as for `CCn1c(SCC(=O)Nc2ccc(C)cc2Br)nnc1-c1nonc1NC(C)=O`, inactive: 86%.
Next, `CCc1ccc(NC(=O)c2ccc3c(c2)N(Cc2ccc(C)cc2)CCS3)cc1`: inactive: 99%; `COc1ccc2c(c1)Cc1sc(NC(=O)c3ccccc3Br)nc1-2`: inactive: 83%.
With `CCc1ccccc1N(C)C(=O)C1CCCN(c2ncnc3onc(-c4ccc(F)cc4)c23)C1` (configuration not stated), the survival is inactive: 74%.
Next, `Cc1ccc(OCCn2c(CNc3cccc(C)c3)nc3ccccc32)cc1`: active: -21%.
As for `CCCN1CCc2nc(N3CCN(CC)CC3)ncc2C1`, the figure is inactive: 71%; as for `CCOc1cccc(C(=O)Nc2c(C(=O)c3ccc(OC)cc3)oc3ccccc23)c1`, inactive: 38%.
On to `NC(=O)c1ccc(NC(=O)c2cc3ccccc3oc2=O)cc1`, for which the survival is inactive: 100%.
Next, `COc1ccccc1CNc1cc(-c2ccccc2)nc2nncn12`: inactive: 78%; `CS(=O)(=O)NCC(c1ccco1)N1CCN(c2ccccc2)CC1` (configuration not stated): inactive: 83%; `COc1ccc(N2Cc3cccc(C(=O)Nc4ccc(C(C)C)cc4)c3C2=O)cc1`: inactive: 82%.
As for `CCCCOC(=O)c1ccc(NC(=O)c2cc(-c3ccccc3)on2)cc1`, the figure is inactive: 92%; as for `CC(=O)c1ccc(C(=O)N(CCCN(C)C)c2nc3c(C)c(C)ccc3s2)cc1`, inactive: 120%; as for `CCCNc1nc2ccccc2s1`, inactive: 116%.
Next, `O=C(CN(c1ccc(Cl)c(C(F)(F)F)c1)S(=O)(=O)c1ccccc1)N1CCc2ccccc2C1`: inactive: 74%; `O=C(c1ccc(Cl)cc1)N1CCC(c2nc(-c3ccc(F)cc3)no2)CC1`: inactive: 117%.
Consider `CC1(C)Cc2c(sc3ncn4nc(CSc5nc6ccccc6o5)nc4c23)C(C)(C)N1`, for which the survival is inactive: 112%.
As for `Cc1ccc(NC(=O)c2sc(-n3nc(C)c(CCC(C)C)c3C)nc2C)cc1C`, the figure is inactive: 95%; as for `Cc1nc2ccn(Cc3cccs3)c(=O)c2cc1C(=O)N1CCN(c2ccc(F)cc2)CC1`, inactive: 129%.
As for `C=Cn1c(C(=O)O)cc(CC)c1-c1ccccc1`, the survival was inactive: 104%.
For `CCN(C(=O)c1cc2c(Cl)nc3ccccc3c2s1)c1cccc(Cl)c1`, the survival is inactive: 76%.
Next, `CCOC(=O)c1cnc2c(C)c(Cl)ccc2c1Nc1ccc(C)cc1C`: inactive: 140%.
As for `C=Cn1cc[n+](CC(=O)c2ccc(Cl)cc2)c1`, the figure is inactive: 108%; as for `CC1=C(C(=O)Nc2cccnc2)C(c2ccc(F)cc2)n2nc(SCc3ccccc3F)nc2N1` (configuration not stated), inactive: 71%.
Next, `CN1c2cc(Cl)ccc2-c2nc(SCC(=O)Nc3ccc(F)cc3F)ncc2S1(=O)=O`: inactive: 73%.
For `COC(=O)c1ccc(S(=O)(=O)N2CCC(c3nc4ccccc4s3)CC2)cc1`, the survival was inactive: 108%.
As to `O=C(Nc1ccccc1)Oc1ccc2sc(=O)oc2c1`, the survival is inactive: 91%.
For `c1ccc(OCCSc2nc3ccccc3o2)cc1`, the survival was inactive: 116%.
Regarding `COc1cc(NC(=O)CN(C)S(=O)(=O)c2ccc3[nH]c4c(c3c2)CCCC4)cc(OC)c1OC`, the survival was inactive: 72%.
Regarding `COc1ccc(OC2CCN(S(=O)(=O)c3ccc(OC)cc3)CC2)cc1`, the survival is inactive: 125%.
Next, `CC1(c2ccccc2)OC(=O)C(C#N)C12CCCCC2` (configuration not stated): inactive: 122%; `O=C1C2=C(Nc3[nH]c(=O)[nH]c(=O)c3C2c2cccs2)c2ccccc21` (configuration not stated): inactive: 124%; `O=C(NC1CCCC1)c1ccc(CSc2nc3ccncc3n2Cc2ccccc2F)cc1`: inactive: 84%.
On to `CCOC(=O)N1CCc2c(sc(NCc3ccc(OCC)cc3)c2C(=O)Nc2ccc(OC)cc2OC)C1`, for which the survival is inactive: 84%.
For the compound `CN(C)C(=O)/C=C/c1ccc2c(c1)OCO2`, the survival was inactive: 113%.
As for `Cc1cc(NC(=O)CSc2nc3c([nH]c4ccccc43)c(=O)n2-c2cccc(Cl)c2)no1`, the figure is inactive: 89%.
Next, `Clc1ccc(-c2noc3ncnc(NCCCN4CCN(c5ccccc5)CC4)c23)cc1`: inactive: 72%.
For the compound `C=C(C)CSc1nc(C)cc(C)c1C#N`, the survival was inactive: 108%.
Next, `CCOC(=O)C1CCCN(C(=O)C2CCN(c3nnc(C)c4c(C)n(-c5ccccc5)nc34)CC2)C1` (configuration not stated): inactive: 152%.
As for `CC1=NN(c2ccccc2)C(c2ccccc2)C1` (configuration not stated), the figure is inactive: 98%; as for `COc1ccccc1C(=O)NCc1ccc2c(c1)CCN2C(=O)c1ccncc1`, inactive: 72%.
Next, `Cn1c(C=Nc2ccc(Cl)cc2)nc2ccccc21`: inactive: 111%; `CCOc1ccccc1NC(=O)C(Cc1ccccc1)NS(=O)(=O)c1ccc(Br)s1` (configuration not stated): inactive: 137%; `Cc1ccc(C)c(N(CC(=O)Nc2ccccc2)S(C)(=O)=O)c1`: inactive: 99%.
For the compound `Cc1ccc(C)c(N2CCN(C(=O)C3CCN(S(=O)(=O)c4cn(C)cn4)CC3)CC2)c1`, the survival is inactive: 75%.
Next, `CC(=O)Nc1ccccc1C(=O)NCc1ccco1`: inactive: 106%.
As for `COc1ccc(CNS(=O)(=O)c2cc(C(=O)Nc3cc(Cl)cc(Cl)c3)ccc2F)cc1`, the figure is inactive: 88%; as for `CCc1ccc(CNC(=O)C(CC)n2ccc3cc(S(=O)(=O)N4CCCCC4)ccc32)cc1` (configuration not stated), inactive: 81%; as for `CCOC(=O)C1C(=O)C(C(=O)OCC)C(c2cccnc2)NC1c1cccnc1` (configuration not stated), inactive: 110%.
With `COc1ccccc1C(=O)NCc1ccc2c(c1)CCN2C(=O)c1cccc(C)c1`, the survival is inactive: 98%.
For the compound `COc1ccc(N2CCN(C(=O)C3CCN(S(=O)(=O)c4cnc[nH]4)CC3)CC2)cc1`, the survival is inactive: 121%.
As for `CCCc1nc2ccccc2n1CC(O)COc1ccccc1` (configuration not stated), the figure is inactive: 103%; as for `CCOC(=O)Cn1c(=O)oc2cc(S(=O)(=O)Nc3cc(OC)cc(OC)c3)ccc21`, inactive: 73%; as for `CCc1ccc2[nH]c(=O)c(CN(CCN(C)C)C(=O)Nc3ccccc3Cl)cc2c1`, inactive: 115%.
Next, `CCc1ccccc1Nc1nn2c(=O)c3ccc(C(=O)NCc4cccs4)cc3nc2s1`: inactive: 67%; `O=C(c1cccc(S(=O)(=O)N2CCOCC2)c1)N1CCCCC1`: inactive: 107%.
As for `CN1CCN(C(c2ccc(F)cc2)c2sc3nc(-c4ccco4)nn3c2O)CC1` (configuration not stated), the figure is inactive: 71%.
Regarding `Cc1cccc(C(=O)Nc2cccc(C(=O)OCc3cc(=O)n4c5c(sc4n3)CCCC5)c2)c1`, the survival was inactive: 148%.
Next, `CCc1ccc(S(=O)(=O)c2nnn3c2nc(NCc2cccs2)c2sccc23)cc1`: inactive: 90%; `CCn1c(C)c(C)c2cc(C(=O)NCCc3cc(OC)c(OC)c(OC)c3)ccc21`: inactive: 73%; `CCNC(=S)N1CCN(C)CC1`: inactive: 104%.
As for `O=C(Nc1ccccc1F)C(Cc1ccccc1)n1cccc1` (configuration not stated), the figure is inactive: 85%.
